# Assay results published in PubChem BioAssay AID485294 (National Center for Advancing Translational Sciences (NCATS), 2010).
# About 150 (0.041%) of roughly 370,000 compounds were called active. The shares of active, inactive and inconclusive entries below differ from those in the screen. Calls come from the whole dose curve; as a rule, active = well fitted inhibition curve with a large enough effect; inconclusive = small, poorly fitted or top-dose-only effect; inactive = flat fitted curve, though single readings scatter. Potencies of inconclusive entries are left out as doubtful fits.
# Biological target: Beta-lactamase (Escherichia coli (strain K12)) (UniProt P00811)
# Chain of UniProt P00811 (P00811 whole entry, looked up): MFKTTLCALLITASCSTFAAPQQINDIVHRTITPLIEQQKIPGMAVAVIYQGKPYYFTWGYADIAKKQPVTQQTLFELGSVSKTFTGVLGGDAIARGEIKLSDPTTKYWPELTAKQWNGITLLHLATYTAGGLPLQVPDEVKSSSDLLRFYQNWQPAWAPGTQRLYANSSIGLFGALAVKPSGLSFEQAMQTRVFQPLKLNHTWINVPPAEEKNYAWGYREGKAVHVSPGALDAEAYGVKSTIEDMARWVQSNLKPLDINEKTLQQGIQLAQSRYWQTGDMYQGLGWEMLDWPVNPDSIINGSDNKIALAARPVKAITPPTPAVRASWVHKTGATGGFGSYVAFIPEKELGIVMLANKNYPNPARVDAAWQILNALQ
# Assay: qHTS Inhibitors of AmpC Beta-Lactamase (assay with detergent); note: nearly all actives have a fitted effect of over 25% in size;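 for activity change, negative = inhibition: 0% = no-compound wells and -100% = no-enzyme wells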
# Settings: AmpC hydrolysis of nitrocefin, absorbance 480 nm, 0.01% Triton; activity change, negative = inhibition: at 114 µM (top of the series)
# Outline: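 AmpC (5.3 nM in the dispensed reagent) in 20 mM phosphate pH 7.0 with 0.01% (detergent screen) or 0.0001% Triton X-100 was preincubated with compounds for 15 min at room temperature. Nitrocefin was then added from an 800 uM solution, and hydrolysis was followed at 480 nm.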
# Potency is the fitted concentration of half-maximal effect; tags give direction and shape of the fitted curve.
Structure (SMILES),Potency,"activity change, negative = inhibition"
Clc1ccc(-c2nnc3sc(Cc4cccs4)nn23)c(Cl)c1,"inconclusive [inhibitor, full curve]",
CCCC(C)c1nnc(NC(=O)CN2C(=O)c3ccccc3C2=O)s1 (stereo not given),"inconclusive [inhibitor, partial curve, poor fit]",
CCOC(=O)c1ccc2[nH]c3c(c2c1)CCCC3,,inactive: 5.24%
O=C(CNC(=O)c1cc(S(=O)(=O)N2CCCCC2)ccc1N1CCOCC1)Nc1ccc(F)c(F)c1,"inconclusive [inhibitor, partial curve, poor fit]",
O=C(NCCCN1CCOCC1)c1ccc(CS(=O)(=O)c2c(Cl)cccc2Cl)o1,"inconclusive [inhibitor, full curve, poor fit]",
Cc1nc(/C=[N+](\[O-])C(C)(C)/C=N/O)n(O)c1C,"inconclusive [inhibitor, full curve, poor fit]",
CCN(c1ccccc1)S(=O)(=O)c1ccc2[nH]cc(C(=O)N3CCOCC3)c(=O)c2c1,"inconclusive [inhibitor, single point]",
CC1CCN(S(=O)(=O)c2ccc3c(c2)N(CC(=O)NCc2cccnc2)C(=O)CS3)CC1,"inconclusive [inhibitor, partial curve, poor fit]",
Cc1c(NC(=O)CCSc2ccc(Cl)cc2)c(=O)n(-c2ccccc2)n1C,"inconclusive [inhibitor, full curve, poor fit]",
C/C(=N\NC(=O)C1CC1c1ccccc1)c1cccs1 (stereo not given),,inactive: -1.21%
NC(=O)CSC1=N/C(=C\c2ccco2)C(=O)N1c1ccc(OC(F)F)cc1,"inconclusive [inhibitor, single point]",
O=C(Nc1ccccc1F)C1CCCN1S(=O)(=O)c1ccc(Cl)cc1 (stereo not given),"inconclusive [inhibitor, full curve, poor fit]",
COc1cc(O)oc1C=Nc1ccc(C(=O)O)cc1,"inconclusive [inhibitor, full curve, poor fit]",
CC1CCCN(Cc2ccc(OCc3ccccc3)cc2)C1 (stereo not given),,inactive: -12%
COc1ccc2c(c1)c1c(c(=O)n(-c3cccc(C)c3)c(=O)n1CC(=O)N1CCCC1)n2C,,inactive: -9.14%
CC(Sc1nc2ccccc2o1)C(=O)O (stereo not given),"inconclusive [inhibitor, single point]",
CSc1nsc(SCc2cnc(C)nc2N)n1,"inconclusive [inhibitor, full curve]",
COc1cc(C(=O)NCC(=O)NNC(=O)C2COc3ccccc3O2)cc(OC)c1OC (stereo not given),"inconclusive [inhibitor, full curve]",
COc1ccccc1CN1CC(C(=O)N(C)Cc2ccncc2C)CCC1=O (stereo not given),,inactive: 5.28%
Cc1cc2c(c(=O)n1CCCn1ccnc1)C(c1ccco1)C(C#N)=C(N)O2 (stereo not given),,inactive: -7.14%
Cc1ccc(C(=O)O)cc1Nc1ncnc2sc3c(c12)CCC3,"inconclusive [inhibitor, full curve]",
CCOc1cc(CNCCO)cc(Br)c1OCc1cccs1,,inactive: -1.34%
CSCCC(NS(=O)(=O)c1ccc2c(c1)oc(=O)n2C)C(=O)NC1CCC(C)CC1 (stereo not given),"inconclusive [inhibitor, full curve, poor fit]",

Structure (SMILES),Potency,"activity change, negative = inhibition"
O=C(CCc1ccc(S(=O)(=O)NCc2ccccc2)cc1)NCc1ccco1,"inconclusive [inhibitor, full curve, poor fit]",
O=C(COC(=O)c1cc(-c2cccs2)nc2ccccc12)NC1CCS(=O)(=O)C1 (stereo not given),,inactive: -10.8%
CN(C)C(=S)NC(=NCc1ccc([N+](=O)[O-])cc1)c1ccccc1,,inactive: -8.51%
Cc1ccc(C(=O)CSc2n[nH]c(-c3ccco3)n2)cc1C,"inconclusive [inhibitor, single point]",
CCn1nnnc1SCCSc1nnnn1CC,"inconclusive [inhibitor, single point]",
COc1ccc(Cc2nnc(SCC(=O)NC(C)c3ccccc3)o2)cc1 (stereo not given),"inconclusive [inhibitor, partial curve, poor fit]",
Cc1nc2scc(-c3ccccc3)c2c(=O)n1N=C1C=CC(=O)C=C1,,inactive: -0.633%
COCCNCc1ccc(Cl)cc1Cl,,inactive: -0.558%
O=C(Nc1cccc(Cl)c1)c1ccc(NCCCN2CCOCC2)c([N+](=O)[O-])c1,"inconclusive [inhibitor, full curve, poor fit]",
CCOC(=O)Cc1csc(NC(=O)CSc2ccc(Br)cc2)n1,"inconclusive [inhibitor, full curve, poor fit]",
Cc1ccc(CNC(=O)c2cccc3c2C(=O)c2ccc(N4CCOCC4)cc2S3(=O)=O)cc1,,inactive: 3.33%
CCc1ccc(NC(=O)C2CCCN(S(=O)(=O)c3cccc4nonc34)C2)cc1 (stereo not given),,inactive: -0.67%
Cc1n[nH]c(C)c1CN(C)C(=O)c1cc(COc2ccc(F)c(F)c2)on1,,inactive: 2.09%
CC(=O)N1CCN(Cc2nc3cc(NC(=O)c4ccccc4)ccc3n2C)CC1,"inconclusive [inhibitor, full curve, poor fit]",
Cc1ccc(CNC(=O)CN(Cc2ccccc2)S(C)(=O)=O)cc1,"inconclusive [inhibitor, single point]",
COc1cccc(NC(=O)c2nnn(Cc3ccc(OC)c(Br)c3)c2N)c1,"inconclusive [inhibitor, single point]",
COc1ccccc1C(c1nnnn1C(C)(C)C)N1CCN(Cc2ccccc2)CC1 (stereo not given),"inconclusive [inhibitor, partial curve, poor fit]",
Cc1ccc(-c2noc(CCC(=O)N(C)c3ccccc3C)n2)cc1,"inconclusive [inhibitor, partial curve, poor fit]",
CC(=O)Nc1ccc(NC(=O)c2c(C)nn(-c3ccccc3)c2-n2cccc2)cc1,,inactive: 1.43%
COc1ccc(N2CCN(C(=O)C3Cc4ccccc4CN3C(=O)c3ccco3)CC2)cc1 (stereo not given),,inactive: 6.05%
CCc1c(O)c(-c2ccccc2)c(=O)n(-c2ccccn2)c1-c1ccccc1,,inactive: -4.93%
O=C(NNC(=O)c1ccc(SCC2CCCO2)c([N+](=O)[O-])c1)c1ccc(F)cc1 (stereo not given),"inconclusive [inhibitor, full curve, poor fit]",
